# Assay results as given in publication PMC12040169 (PLOS Biology, 2025).
# The other results are listed elsewhere or left out.
# Test system: T1, C. trachomatis L2/434/Bu expressing GFP (CTL2-GFP)
# T1 construct: L2/434/Bu GFP intracellular growth in HeLa cells
# Parameters: species or system HeLa; C. trachomatis total inclusion area by high-content imaging, normalised to DMSO
# Details: total inclusion area; 28.5 h, 10 µM; inhibitor
# Outline: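 High-content imaging followed the bulk GFP/resorufin measurement: fixed, Hoechst-stained cells were scored for GFP inclusions and host nuclei per well. Total inclusion area and count served as growth proxies, nuclei number as the viability proxy. MIC calculation matched the bulk assay.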
row,Compound,% of control remaining
1,COc1ccccc1-c1c(O)n[nH]c1CCC1CCCC1 [CBK075128],108.978
2,COc1cc(/C=C2\N=C(c3cc(Cl)ccc3OC)OC2=O)ccc1OC(=O)c1ccccc1 [CBK265069],116.351
3,O=C(NCCCCNC(=O)c1scc(-c2ccccc2)c1C(=O)O)c1scc(-c2ccccc2)c1C(=O)O [CBK296086],90.0895
4,CCN1CCN(Cc2nc3c(c(=O)n(C)c(=O)n3C)n2CCc2ccccc2)CC1 [CBK269547],96.4192
5,CC(=O)Nc1cccc(-c2cnc(N)c(N3CCN(C)CC3)n2)c1 [CBK063361],94.84
6,O=C(NCC1CCCCC1)N1CCN(c2cc(C(F)(F)F)ccn2)CC1 [CBK162323],47.5859
7,COc1ccc(-c2nc(NC(=O)Cc3ccc(S(C)(=O)=O)cc3)cnc2-c2cccc(C)c2)cc1 [CBK037525],109.807
8,CCCc1cc(CNC(=O)CN2CCCC(C)C2)on1 (centres unmarked) [CBK282045],128.203
9,CON=Cc1c[nH]c2ccccc12 [CBK168628],56.855
10,COC(=O)C1ON2CCCCC2C1(O)C(F)(F)F (centres unmarked) [CBK007430],81.3132
11,Cc1ccc(-c2nccnc2OCc2ccccc2)cc1C [CBK106861],84.0533
12,COc1cccc2cc([C@H]3CN(C(=O)C(C)(C)N)C[C@@H]3C(=O)N3CCC4(CC3)CN(S(C)(=O)=O)c3ccccc34)oc12 [CBK001347C],82.8741
13,CC(=O)c1cccc(NC(=O)CCn2[nH]c(=O)ccc2=O)c1 [CBK306094],38.5216
14,COc1cc(CN2CCN(Cc3cccc([N+](=O)[O-])c3)CC2)cc(OC)c1 [CBK263156],95.183
15,Cc1cc(C(F)(F)F)c2c(NCc3ccoc3)n[nH]c2n1 [CBK284698],39.9555
16,CC1CCCCN1S(=O)(=O)c1cccc2nonc12 (centres unmarked) [CBK261723],106.912
17,Fc1cccc(F)c1CN1CCN(CCc2ccccc2)CC1 [CBK126422],109.674
18,CCCC/C=C/c1cnc2[nH]c(=O)n(Cc3ccccn3)c2n1 [CBK064365],136.075
19,Cc1ccccc1CN1CCN(CC(=O)Nc2ccccc2C(N)=O)CC1 [CBK270296],88.6597
20,CN(C)CCN(C)C(=O)c1ccc(-c2cccc(C(=O)NCCO)c2)nc1NCC1CC1 [CBK076603],78.0008
21,CC[C@H](Cn1c(=O)oc2ccccc21)NC(=O)C1CCCC1 [CBK284542],53.4149
22,COc1ccccc1-c1cc(C(F)F)nc(S)c1C#N [CBK288358],98.3262
23,COc1ccc(C2NC(C(=O)O)C3C(=O)N(c4ccc(C)cc4)C(=O)C23)c(OC)c1 (centres unmarked) [CBK287233],107.599
24,c1ccc([C@@H]2CN(Cc3cccnc3)C[C@H]2c2cc[nH]n2)cc1 [CBK285160],99.3869
25,CC(C)n1nnnc1-c1ccccc1NS(=O)(=O)C1CC1 [CBK305509],27.636

row,Compound,% of control remaining
1,CCn1c(CNC(=O)c2cn3ccc(C)cc3n2)nc2ccccc21 [CBK281394],80.0904
2,O=C(NCc1ccccn1)C1CCC(Cn2c(=S)[nH]c3ccccc3c2=O)CC1 (centres unmarked) [CBK266645],116.879
3,O=C(O)COc1c(-c2ccco2)oc2ccccc2c1=O [CBK269262],96.7308
4,CC(=O)N[C@@H](Cc1c[nH]cn1)C(=O)Nc1cc2ccccc2c(Br)n1 [CBK063302],102.417
5,CCOC(=O)c1cnn(C2CCCN(Cc3cncs3)C2)c1 (centres unmarked) [CBK304039],41.5847
6,COCC1CN(C(=O)Nc2ncc(Cc3ccc(C)c(Cl)c3)s2)CCO1 (centres unmarked) [CBK306286],60.3355
7,Cc1cccc(-c2ncc(NC(=O)CC3OC(=O)c4ccccc43)nc2-c2ccc(N)cc2)c1 (centres unmarked) [CBK036749],117.018
8,COc1cc2nc(NC(=O)C3COc4ccccc4O3)sc2cc1OC (centres unmarked) [CBK287702],92.9141
9,CS(=O)(=O)Nc1nccnc1OC1CCN(CCc2ccccc2)CC1 [CBK084279],86.0659
10,COc1ccc([C@@]23CC[C@@H](NC(=O)Nc4ncc(Cl)s4)C[C@@H]2N(C)CC3)cc1OC [CBK051620T],91.1531
11,O=C1CO[C@H]2CN(Cc3ncc[nH]3)C[C@H]2N1Cc1ccncc1 [CBK289259],94.0505
12,O=C(O)c1cccc(-n2cc(-c3ccc(F)cc3F)nn2)c1 [CBK112998],90.6143
13,Cn1c(=O)c2c(ncn2CC(=O)Nc2ccc(OCc3ccccc3)cc2)n(C)c1=O [CBK130478],97.6289
14,CC(C)(CNC(=O)Cn1cccc(C(=O)NC2CCCCC2)c1=O)c1cccc(F)c1 [CBK286069],131.639
15,CC(=O)N1CCc2c([nH]c3c(C)cccc23)C12CCCN(CCCC#N)C2 (centres unmarked) [CBK039705],84.5023
16,Nc1ccc(Cl)cc1C(O)(CCCN1CCCCC1)c1ccccc1 (centres unmarked) [CBK023107],7.874
17,CCc1nn(CC(=O)N(C(C)C)C(C)C)c(=O)c2cc3occc3n12 [CBK283658],93.5416
18,Cc1nc(C2CCCN(C(=O)C3CCC3)C2)nc2c1CCCN2Cc1ccccc1 (centres unmarked) [CBK286257],110.888
19,O=C(O)c1ccccc1-c1ccccc1C(=O)Nc1ccccc1-c1ccccc1 [CBK262843],84.4455
20,CC(=O)CSc1nsc(SCC(C)=O)n1 [CBK006702],75.8516
21,CC(C)Nc1nccnc1OCCOc1cccc(O)c1 [CBK115878],93.0114
22,CN1C(=O)COc2ccccc2CCCC[C@@H]2[C@H]1CCCN2C(=O)CCn1ccnc1 [CBK292150],121.346
23,O=C(NC1CCN(CCOc2ccccc2F)CC1)c1cccs1 [CBK305737],69.6672
24,CN1CCN(C(=O)c2ccc(-c3ccoc3)nc2)CC1 [CBK156280],109.604
25,COc1ccc(NC(=N)Nc2nc(=O)cc(CSc3nc4ccccc4s3)[nH]2)cc1 [CBK266256],159.622
